{
  "source": "patent US7399608B2",
  "about": "“Microbial detection and quantification” (Kimberly-Clark Worldwide, Inc., priority 2003, dated 2008)",
  "key": {"[1]": {"system": "bacteria in aged chicken juice", "experiment": "N-docosyl-merocyanine dye coated onto cotton fabric, aged chicken juice", "conditions": "pinkish-orange areas after 1 N sodium hydroxide"}, "[2]": {"system": "budgerigar feces suspension", "experiment": "N-methyl merocyanine coated paper towel, pet bird feces suspension", "conditions": "0.5 g dye in 20 ml water on SCOTT towel", "description": "Budgerigar feces was collected from a caged pet budgie, and shaken in approximately 10 ml of Atlanta city domestic tap water. N-methyl merocyanine dye of structure 33 above was synthesized as described above."}, "[3]": {"system": "microbes in aged female human urine", "experiment": "N-methylmerocyanine coated onto kitchen paper towel, aged urine"}, "[4]": {"system": "bacteria from aged chicken juice", "experiment": "Reichardt's dye indicator spray on surfaces contaminated with aged chicken", "conditions": "160 mg in 10 ml acetonitrile, hot plate surface"}},
  "data": [
    {"smiles": "CCCCCCCCCCCCCCCCCCCCCC[n+]1ccc(C=Cc2ccc(O)cc2)cc1.[Br-]", "values": [
      {"measurement": "color change of dye + NaOH spots on cotton", "setting": "[1]", "value": "color change from pinkish-orange to very pale yellow"}
    ]},
    {"smiles": "COc1cc(/C=C/c2cc[n+](C)cc2)ccc1[O-]", "note": "[N-methyl merocyanine dye]", "values": [
      {"measurement": "color change of coated towel with budgie feces suspension", "setting": "[2]", "value": "immediate color change from deep orange to pale yellow"},
      {"measurement": "color change of coated towel with aged urine", "setting": "[3]; urine stored 24 hours at 37° C., approximately 1×10^5 CFU/ml expected", "value": "immediate color change from deep orange to pale yellow"},
      {"measurement": "color change of coated towel with aged urine", "setting": "[3]; urine stored 8 days at room temperature, 0.5 g dye in 20 ml water on SCOTT towel", "value": "immediate color change from deep orange to pale yellow"}
    ]},
    {"smiles": "[O-]c1c(-c2ccccc2)cc(-[n+]2c(-c3ccccc3)cc(-c3ccccc3)cc2-c2ccccc2)cc1-c1ccccc1", "note": "[Reichardt's dye, 2,6-diphenyl-4-(2,4,6-triphenylpyridinio)-phenolate]", "values": [
      {"measurement": "color change of indicator spray on pattern of aged raw chicken juice", "setting": "[4]", "value": "de-colorization of the dye in the exact form of the pattern of chicken juice"}
    ]}
  ]
}
